Consider 25 compounds from publication PMC4336329 (PLoS ONE, 2015).

Out of some 310,000 compounds screened, about 2,200 (0.71%) showed an effect of 50% or more. Effects have a minus sign here. This is one part of the list.

Chain of human ether-à-go-go-related gene (hERG) potassium channel (Q12809 whole entry, looked up): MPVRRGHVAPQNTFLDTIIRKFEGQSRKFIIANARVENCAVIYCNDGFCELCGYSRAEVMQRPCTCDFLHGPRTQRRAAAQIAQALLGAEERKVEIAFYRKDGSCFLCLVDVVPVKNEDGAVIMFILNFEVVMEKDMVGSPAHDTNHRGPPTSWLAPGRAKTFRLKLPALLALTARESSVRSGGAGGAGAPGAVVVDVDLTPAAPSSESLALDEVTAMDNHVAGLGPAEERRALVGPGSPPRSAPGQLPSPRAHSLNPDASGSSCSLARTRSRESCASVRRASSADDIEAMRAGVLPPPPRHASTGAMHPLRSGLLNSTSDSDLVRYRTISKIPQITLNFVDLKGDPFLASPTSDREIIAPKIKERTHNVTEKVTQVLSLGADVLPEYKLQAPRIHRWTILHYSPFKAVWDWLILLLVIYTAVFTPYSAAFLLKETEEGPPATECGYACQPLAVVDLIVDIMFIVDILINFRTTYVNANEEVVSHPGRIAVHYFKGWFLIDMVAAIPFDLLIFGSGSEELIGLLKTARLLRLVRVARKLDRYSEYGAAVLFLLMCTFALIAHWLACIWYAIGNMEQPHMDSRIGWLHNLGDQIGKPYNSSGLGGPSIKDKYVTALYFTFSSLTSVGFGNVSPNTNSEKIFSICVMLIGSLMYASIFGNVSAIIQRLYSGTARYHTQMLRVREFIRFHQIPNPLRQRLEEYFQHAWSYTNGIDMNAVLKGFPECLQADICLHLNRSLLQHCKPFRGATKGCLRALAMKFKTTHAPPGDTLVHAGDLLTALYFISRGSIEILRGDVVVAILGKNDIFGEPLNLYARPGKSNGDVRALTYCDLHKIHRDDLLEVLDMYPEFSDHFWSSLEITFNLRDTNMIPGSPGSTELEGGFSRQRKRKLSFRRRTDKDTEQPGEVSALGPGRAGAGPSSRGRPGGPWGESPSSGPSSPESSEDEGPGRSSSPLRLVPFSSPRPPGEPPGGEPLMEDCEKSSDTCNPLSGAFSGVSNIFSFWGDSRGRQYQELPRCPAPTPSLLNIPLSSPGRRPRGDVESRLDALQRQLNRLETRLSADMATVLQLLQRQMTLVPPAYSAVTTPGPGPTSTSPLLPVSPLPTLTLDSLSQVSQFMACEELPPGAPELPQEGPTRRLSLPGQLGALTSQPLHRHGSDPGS

This experiment has as its target human ether-à-go-go-related gene (hERG) potassium channel (human, UniProt Q12809). As to the kind of experiment: primary screen, population patch clamp on CHO cells stably expressing hERG.
With `CC(=O)N=C1SC2CS(=O)(=O)CC2N1c1cccc(Cl)c1Cl` (stereo not shown), the “hERG current change (%, negative = inhibition) at 1uM” value was found to be 5.93%.
Under `Cc1cc(C(=O)COc2ccc3ccc(=O)oc3c2)c(C)n1Cc1cccs1` stands 5.71%.
For `O=C(Cn1cnc2c(nnn2Cc2ccc(F)cc2)c1=O)Nc1ccc2c(c1)OCCO2` the value was -9.58%; for `Cc1ccc(NC(=O)c2cnccn2)c(OC(F)F)c1`, 3.8%; for `Cc1cccc(N2CCN(C(=O)CCn3c(=O)[nH]c4ccccc4c3=O)CC2)c1C`, 3.22%.
For `Cc1cc(-c2ccc(S(=O)(=O)Nc3ccc(C#N)cc3)s2)on1` the value was 18.2%; for `Cn1c(SCCc2ccc([N+](=O)[O-])cc2)nccc1=O`, -13.9%.
As for `CCc1[nH]nc2c1C(c1ccncc1)C(C#N)=C(N)O2` (stereo not shown), the “hERG current change (%, negative = inhibition) at 1uM” value stood at 10.1%.
For `CCn1c(SCC(=O)NCC2CCCO2)nnc1-c1ccccc1OC` (stereo not shown) the value was 12.8%; for `O=C(NCc1ccc2c(c1)OCO2)c1cc(-c2ccccc2Cl)on1`, 12.4%; for `Fc1ccccc1Cc1noc(CN(Cc2ccccn2)CC2CCCO2)n1` (stereo not shown), 5.69%.
For `Cc1ccc(S(=O)(=O)C(c2ccccc2)c2c(C)noc2C)cc1` (stereo not shown), the “hERG current change (%, negative = inhibition) at 1uM” value came out at 13%.
Under `O=C(/C=C/c1cccc(Br)c1)NCc1ccncc1` stands 6.96%; under `COC(=O)c1ccc(Cl)c(NC(=O)CN2CCN(C)CC2)c1`, -11.3%; under `COc1cc([N+](=O)[O-])ccc1NC(=O)CCCOc1ccc(C)cc1`, 4.14%.
For `CCCCn1c(N)c(Br)c(=O)[nH]c1=O` the value was 6.56%.
Under `CCc1ccc(NC(=O)c2cnccn2)cc1` stands 8.37%; under `CCOC12NC(=O)CC(=O)N1C(c1ccccc1)=CS2` (stereo not shown), -8.79%.
In the case of `CN(C)C(CNC(=O)c1cccc(S(=O)(=O)N2CC3(C)CC2CC(C)(C)C3)c1)c1ccco1` (stereo not shown), the “hERG current change (%, negative = inhibition) at 1uM” value is reported as 6.34%.
Under `COc1ccc(/C=C2\CCc3ccccc3C2=O)cc1Cn1nc(C)cc1C` stands 4.89%; under `CCCCN(CCO)c1ncnc2sc(-c3ccccc3)cc12`, 16.7%; under `Cc1cc(F)ccc1NC(=O)c1cc(S(=O)(=O)N2CCCC2)cn1C`, 0.672%.
For `CCCC1C2C(=O)N(c3ccccc3)C(=O)C2ON1c1ccccc1` (stereo not shown) the value was 14.1%; for `COc1ccc(/C=C2/SC(=O)N(CCCCCC(=O)Nc3ccccc3C(=O)O)C2=S)cc1`, 8.35%.
Under `C=C(C)C1CC=C(C)/C(=N/NC(=O)CCC(=O)Nc2ccccc2Cl)C1` (stereo not shown) stands 6.51%.
